# The whole screen tested about 310,000 compounds, of which about 2,200 (0.71%) showed an effect of 50% or more. Effects have a minus sign here. Some of the results follow.
# Target: human ether-à-go-go-related gene (hERG) potassium channel (human, UniProt Q12809)
# Test: primary screen, population patch clamp on CHO cells stably expressing hERG
# Sequence of human ether-à-go-go-related gene (hERG) potassium channel (Q12809 whole entry, looked up): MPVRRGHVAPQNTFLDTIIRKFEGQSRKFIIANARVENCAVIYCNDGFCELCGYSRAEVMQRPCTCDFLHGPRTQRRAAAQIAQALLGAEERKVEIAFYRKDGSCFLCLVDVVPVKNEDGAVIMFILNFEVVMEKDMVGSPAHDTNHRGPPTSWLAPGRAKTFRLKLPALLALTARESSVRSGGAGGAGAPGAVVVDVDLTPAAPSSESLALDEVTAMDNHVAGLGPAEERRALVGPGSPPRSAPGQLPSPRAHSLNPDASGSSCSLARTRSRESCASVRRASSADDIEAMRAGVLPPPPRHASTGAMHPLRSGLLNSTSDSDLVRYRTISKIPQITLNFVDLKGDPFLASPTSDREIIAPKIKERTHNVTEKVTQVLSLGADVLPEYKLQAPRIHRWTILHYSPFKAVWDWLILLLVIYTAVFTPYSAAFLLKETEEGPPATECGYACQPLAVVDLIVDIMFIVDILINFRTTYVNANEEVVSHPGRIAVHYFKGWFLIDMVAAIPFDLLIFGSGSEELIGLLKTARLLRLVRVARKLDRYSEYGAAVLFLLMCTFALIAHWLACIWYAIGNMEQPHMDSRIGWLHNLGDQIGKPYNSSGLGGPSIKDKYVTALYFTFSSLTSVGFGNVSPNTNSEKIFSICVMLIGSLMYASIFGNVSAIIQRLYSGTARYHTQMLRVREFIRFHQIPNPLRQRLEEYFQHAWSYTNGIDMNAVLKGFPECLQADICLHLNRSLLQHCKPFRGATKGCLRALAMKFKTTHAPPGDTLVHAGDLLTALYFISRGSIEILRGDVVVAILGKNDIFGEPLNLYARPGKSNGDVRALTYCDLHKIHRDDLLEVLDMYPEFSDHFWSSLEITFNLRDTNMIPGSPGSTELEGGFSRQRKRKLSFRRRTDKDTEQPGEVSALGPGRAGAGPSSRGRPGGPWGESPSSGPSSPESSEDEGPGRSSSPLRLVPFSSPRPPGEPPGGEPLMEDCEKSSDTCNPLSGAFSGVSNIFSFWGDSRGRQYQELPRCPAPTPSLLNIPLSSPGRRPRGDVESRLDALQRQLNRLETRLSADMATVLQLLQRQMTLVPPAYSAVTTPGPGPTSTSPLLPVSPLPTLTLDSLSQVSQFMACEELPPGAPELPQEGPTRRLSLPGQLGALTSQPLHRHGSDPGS
row,Compound,"hERG current change (%, negative = inhibition) at 1uM [%]"
1,CC(NC(=O)CN(C)CC(=O)Nc1cccc(F)c1)c1ccccc1 (stereo not drawn),9.42
2,CC(SC1=NCCS1)C(=O)Nc1nnc(-c2ccc(Cl)cc2)s1 (stereo not drawn),10.6
3,O=[N+]([O-])c1ccc(N2CCC(O)CC2)nc1,10.5
4,CCN(CC(=O)Nc1c(F)cccc1F)C(=O)CCN1C(=O)C2CC=CCC2C1=O (stereo not drawn),12.6
5,Fc1ccc(Cn2nnnc2CN2CCN(C3CCCC3)CC2)cc1,-9.46
6,Cc1ccc(-n2c(SCCN)nnc2-c2cccc(C)c2)cc1.O=C(O)C(=O)O,-8.4
7,Cc1ccc(-n2ccnc2SCC(=O)O)c(C)c1,14.1
8,CCc1ccc(NC(=S)N(Cc2ccccc2)Cc2ccccn2)cc1,9.77
9,Cl.O=C(c1ccc(COc2ccccc2Cl)o1)N1CCN(Cc2ccc3c(c2)OCO3)CC1,4.64
10,CCCC(=O)Nc1ccc2c(c1)nc1n2CCSC1,-2.7
11,Cl.Oc1ccccc1Nc1nc(NCc2ccccc2)c2ccccc2n1,7.76
12,CN(Cc1ccccc1)c1nnc(N)s1,9.56
13,Cc1nn(C(C)C)c(C)c1CN1CCCC(CCC(=O)NCc2ccccc2F)C1 (stereo not drawn),15.7
14,O=C(CC(O)(c1ccccc1)C(F)(F)F)c1cccs1 (stereo not drawn),8.8
15,COCCCNc1nc(N)c([N+](=O)[O-])c(N2CCCCCC2)n1,17.7
16,CCCNS(=O)(=O)/C=C/c1ccccc1,6.96
17,Fc1ccc(NC(=S)Nc2ccccc2N2CCOCC2)cc1Cl,8.59
18,CC(=O)N1CCc2cc(S(=O)(=O)CCC(=O)N3CCN(c4ccccc4)CC3)ccc21,15.1
19,CC(C)C(=O)Nc1ccc2c(c1)Cc1cc(NC(=O)C(C)C)ccc1-2,18.8
20,COc1ccc(C2C(C(C)=O)=C(C)N=c3s/c(=C\c4ccco4)c(=O)n32)c(OC)c1 (stereo not drawn),-6.75
21,Cc1ccc(-c2nc3ncccn3c2Nc2ccc3c(c2)OCCO3)cc1,18.1
22,O=C(CS(=O)(=O)c1ccccc1)N1CCCCCC1,9.28
23,COc1ccc(C(=O)NC(=O)N2CCCCC2)cc1,11.5

row,Compound,"hERG current change (%, negative = inhibition) at 1uM [%]"
1,O=c1[nH]c(=O)n(C2CCCO2)cc1Br (stereo not drawn),11.1
2,O=C(CCNC(=O)c1ccccc1Cl)Nc1nnc(C2CC2)s1,12
3,COc1ccc(CCNC(=O)CSc2ccc3ccccc3c2)cc1OC,-0.395
4,Cc1ccc(-c2cc(C(=O)NC3CCN(Cc4ccccc4)CC3)c3ccccc3n2)cc1,9.83
5,COc1cccc(C(=O)Oc2cc3c4c(c2)C(C)=CC(C)(C)N4C(=O)C3=O)c1,6.09
6,Cc1cc2c(cc(C(=O)O)n2C)s1,4.27
7,NCCNc1ccc2nnnn2n1,27.8
8,CCc1cccc2c(-c3csc(=NC)n3C)c[nH]c12,2.22
9,NNC(=O)c1nn(-c2ccc(Cl)cc2)cc1O,-9.09
10,COc1ccc(C(=O)N/N=C/c2cc3ccccc3[nH]c2=O)cc1,13.3
11,O=C(N/C(=C\c1ccc([N+](=O)[O-])cc1)C(=O)N1CCCCC1)c1ccccc1,-73.2
12,COc1ccc(NC(=O)C2CCCN(c3nn4c(=O)cc(C)nc4s3)C2)cc1 (stereo not drawn),3.79
13,COc1ccc(-c2nnc(NC(=O)c3ccc(S(=O)(=O)N4CCc5ccccc5C4)cc3)o2)cc1,11.6
14,Cc1noc(NS(=O)(=O)c2ccc(NC(=O)CSc3nc4c(cc3C#N)CCCC4)cc2)c1C,13.8
15,COc1ccccc1CNC(=O)C12CC3CC(CC(C3)C1)C2,11.4
16,COc1ccc(C2N(c3ccccc3)CCN2c2ccccc2)cc1O,9.74
17,CC1CC(C)CN(S(=O)(=O)c2ccc(Oc3ccc([N+](=O)[O-])cc3)cc2)C1 (stereo not drawn),14.4
18,COC(=O)C(=C/C=C/c1ccco1)C(=O)OC,11.2
19,Cc1ccc2nc(-c3cccnc3)c(NC3CCCC3)n2c1,13.2
20,Clc1ccc(-n2cnnn2)cc1,6
21,O=C(CCc1nc2ccccc2c(=O)[nH]1)N1CCCc2ccccc21,12.8
22,COc1ccccc1S(=O)(=O)Nc1ccc(-c2nnc3n2CCCCC3)cc1,-5.71
23,COC(=O)c1ccsc1NC(=O)c1ccc(Cl)s1,15.1

row,Compound,"hERG current change (%, negative = inhibition) at 1uM [%]"
1,C/C(CCC(=O)OC[C@H]1O[C@H](C#Cc2ccccc2)C=C[C@@H]1Oc1ccc(C)cc1)=N\OC[C@@H](O)[C@H]1O[C@@H]2OC(C)(C)O[C@@H]2[C@H]1O,-15.7
2,O=C(N/N=C/C=C/c1ccccc1)c1ccncc1,-1.14
3,CCCCNC(=S)N1CCN(CC)CC1.O=C(O)C(=O)O,-5.54
4,Cc1nnc(SCc2nnc(-c3ccccc3Br)o2)s1,18.8
5,CCOc1cc(S(=O)(=O)N2CCOCC2)ccc1F,7.76
6,O=C(c1ccc(Cl)c(S(=O)(=O)N2CCOCC2)c1)N1CCN(c2ccccc2)CC1,-0.271
7,COc1ccccc1OCC(=O)NNC(=S)NC(=O)c1ccco1,5.17
8,C/C(=N/OC(=O)c1ccc(C)cc1)C(=O)c1ccc(Br)cc1,17
9,Cc1ccc(SCc2nc3ncccn3c2Br)cc1,-1.32
10,Cc1ccc(NC(=O)c2ccc(S(=O)(=O)N3CCCC3)cc2)cc1,12.1
11,C/C(CC(=O)Nc1ccc(N(C)C)cc1)=N\NC(=O)c1ccc(Cl)cc1,-11.5
12,N#C/C(=C/Nc1ccccc1F)S(=O)(=O)c1ccc(Cl)cc1,21.6
13,CCOC(=O)NC(=O)c1cn(Nc2ccccc2C(F)(F)F)c(=O)[nH]c1=O,-1.55
14,Cc1ncc(CN2CCCC(C(=O)c3cccc(OC(C)C)c3)C2)s1 (stereo not drawn),6.97
15,CC(C)Sc1nnc(-c2ccc(S(=O)(=O)N3CCOCC3)cc2)n1C,7.81
16,COc1ccc(OC)c(NC(=O)CS(=O)(=O)c2ccccc2)c1,9.89
17,Oc1ccc(N=Cc2ccc(-c3cccs3)s2)cc1,8.48
18,CCOc1ccc(-c2cc(CCCC(=O)Nc3cc(OC)ccc3OC)no2)cc1,-1.35
19,CC(C)(C)NC(=O)/C(=C\C=C\c1ccccc1)NC(=O)c1ccc([N+](=O)[O-])cc1,11.2
20,CCn1c(NCc2cc(OC)c(OC)c(OC)c2)nc2ccccc21.Cl,14.2
21,COC(=O)c1c(NC(C)=O)sc(C(=O)Nc2ccccc2OC)c1C,15.3
22,CN(CCCC(=O)NC1CC(C)(C)NC(C)(C)C1)S(=O)(=O)c1ccc([N+](=O)[O-])cc1,9.24
23,CC(C)(C)c1ccc(C(=O)N2CCCC2c2cccs2)cc1 (stereo not drawn),22.2

row,Compound,"hERG current change (%, negative = inhibition) at 1uM [%]"
1,CN(C)c1cccc(C(=O)N/C=C/n2cnc3cc(C(F)(F)F)ccc32)c1,16.1
2,CN(C)CCCN(C(=O)c1ccc(C(=O)c2ccccc2)cc1)c1nc2c(F)cccc2s1,-1.61
3,O=C(CNC(=O)c1ccc(S(=O)(=O)N2CCCC2)cc1)N/N=C/c1c(Cl)cccc1Cl,6.4
4,Cc1c(CCC(=O)O)c(=O)oc2c(C)c(OCc3ccccc3Cl)ccc12,15.8
5,COc1ccc(NC(=O)c2ccc(S(=O)(=O)N3CCOCC3)o2)cc1,11
6,NS(=O)(=O)c1ccc(CCNC(=O)CSc2nc3ccsc3c(=O)n2CCCCC(=O)O)cc1,20.5
7,COc1cc(/C=N/NC(=O)c2ccc(-n3cccc3)cc2)ccc1O,7.52
8,Cc1cc2c3c(c1)C(C)CC(C)(C)N3C(=O)C2=O (stereo not drawn),3.89
9,COc1ccc(/C(N)=N/OC(=O)Cc2ccc(C)cc2)cc1OC,3.15
10,COc1ccc(C(O)Cn2cc([N+](=O)[O-])nc2C)cc1 (stereo not drawn),12.4
11,COc1cccc(CNC(=O)CNC(=O)c2cccs2)c1,18.1
12,Cc1ccc(NC(=O)Cn2nc(C)c3ccccc3c2=O)cc1,2.11
13,OC(CNCCNc1ncccc1C(F)(F)F)COc1ccc(F)cc1 (stereo not drawn),-25.6
14,O=C(COC(=O)c1cccc(S(=O)(=O)N2CCOCC2)c1)Nc1ncc(C(F)(F)F)cc1Cl,-12
15,CC1=NC(Nc2nc(C)c3ccccc3n2)=NC(C)(C)C1,-19.7
16,Cc1ccc(NC(=O)CSc2nc(=O)n(CCCN3CCOCC3)c3c2CCCC3)cc1,-7.38
17,Cc1ccnc(Nc2nc3ccccc3s2)n1,11
18,Cc1cc(NC(=O)Cn2nc(-c3cccs3)ccc2=O)cc(C)c1Br,17.6
19,Cc1ccc(C(=O)NC(=S)NNC(=O)c2ccccc2[N+](=O)[O-])cc1,10.7
20,O=C(CN1CCCCC1)Nc1ccc(F)c(Cl)c1,1.07
21,CS(=O)(=O)c1cccc(NC(=O)C2CCCN2S(=O)(=O)c2ccc(F)cc2)c1 (stereo not drawn),13.4

# — publication PMC4336329 (PLoS ONE, 2015)
